From PubChem BioAssay AID1963576 (National Center for Advancing Translational Sciences (NCATS), 2024)
Among all 46,000 compounds or so, about 60 (0.1%) were called active. Inconclusive results (about 3%) are left out. The call rests on the fitted dose curve; in most records, active means well fitted inhibition curve with a large enough effect; inconclusive means small, poorly fitted or top-dose-only effect; inactive means no such curve, though single readings can be large or run the other way. The list shows a part of the results.

assay: Primary qHTS assay for Inhibitors of ovarian cancer metastasis using an organotypic tumor microenvironment (TME) model.; further: nearly all actives have a fitted effect of over 65% in size;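 on activity change, negative = inhibition: plate controls were DMSO wells for no effect and tomatine positive control wells for full effect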; conditions: SKOV3ip1-GFP adhesion/invasion on 3D omental model, fluorescence; series mostly up to 45.8 µM; activity change, negative = inhibition: at the top concentration
In short: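 qHTS, 4-pt dose (0.36-46 umol/L); SKOV3ip1-GFP, 1,200 cells/well, no FBS; primary omental fibroblast/mesothelial co-culture 48 h pre-grown; 2 h RT + 16 h 37 C; PBS wash, 4% PFA; GFP count 488/509 nm.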

Activity change, negative = inhibition, inactive:
COC(=O)c1cc(S(=O)(=O)N2CCN(c3ccc(C)cc3C)CC2)cn1C 1.94%, Cc1ccc(-c2cc(C(=O)Oc3ccccc3)c3cccc(C)c3n2)cc1 -17.8%, COc1ccc(NC(=O)c2sc3nc[nH]c(=O)c3c2C)cc1 -5.6%, CCCCCCOc1ccc(-c2nc3ccc(Br)cc3c(=O)o2)cc1 -0.167%, CCOc1ccc(C2c3c(oc4ccc(C)cc4c3=O)C(=O)N2c2nc(C)c(C)s2)cc1OC (centres undefined) -1.01%, O=C1CN(C(=O)C2CCCCC2)C(c2ccccc2)c2cc(F)ccc2N1 (centres undefined) -8.15%, CCOC(=O)c1cnc2ccc(OCC)cc2c1N1CCN(c2cccc(Cl)c2)CC1 -3.81%, CC(C)Oc1ccc(CNC(=O)C2COc3ccccc3C2)cc1 (centres undefined) -8.13%, O=C(CN1C(=O)COc2ccc(S(=O)(=O)N3CCCC3)cc21)N1CCN(c2ccccc2F)CC1 -9.9%, O=C1CC(c2ccccc2)Cc2[nH]c(=O)c(-c3nc(-c4ccc(F)cc4)cs3)cc21 (centres undefined) -15.3%, COc1ccc(CC(=O)Nc2ccc(-c3nc4ccccc4s3)cc2Cl)cc1 -2.79%, Cc1cc(NC(=O)C2CCCN(S(=O)(=O)c3ccc(Br)s3)C2)ccc1Br (centres undefined) -8.55%, COc1cccc(C2=NS(=O)(=O)N(C)C(C(=O)Nc3cccc(O)c3)=C2)c1 -8.83%, Cc1ccc(-c2nnc(SCC(=O)NCCC(C)C)nc2-c2ccc(C)cc2)cc1 4.23%, CCN1CCN(C(c2cccc(Cl)c2)c2c(O)cc(C)n(CCOC)c2=O)CC1 (centres undefined) 15.1%, Cc1ccc(CCNC(=O)CN2C(=O)COc3ccc(S(=O)(=O)N4CCC(C)CC4)cc32)cc1 -3.19%, Cc1cc(OCC(=O)NCC2(N(C)C)CCCCC2)cc(C)c1Cl -2.63%, Cc1cc2nn(-c3ccc(F)cc3)nc2cc1NC(=O)c1cc(Cl)ccc1Cl 4.12%, N=C1SC(=Cc2ccc(-c3ccc4c(c3)C(=O)NC4=O)o2)C(=O)N1c1ccc(Br)cc1 -17.1%, CCc1ccc(NC(=O)N(Cc2c[nH]c3ccccc23)C2CCCCCC2)cc1 2.92%, COc1ccc(N2CCN(C(CNC(=O)C(=O)NCc3ccc(F)cc3)c3cccnc3)CC2)cc1 (centres undefined) 1.61%, O=C(NCc1ccccc1)C(=O)NCC(c1ccco1)S(=O)(=O)c1ccccc1 (centres undefined) -6.99%, COc1ccc(Cl)cc1NC(=O)CSc1nnc(C)n2c1cc1occc12 -0.88%, COc1ccc(CCNC(=O)c2cc3c(=O)n(C)c4cc(Cl)ccc4c3s2)cc1OC -11.6%, CCC1CN(C(=O)NCc2cccc(OC)c2)c2ccccc2O1 (centres undefined) -9.67%, Cc1ccc(-c2ccc(=O)n(CC(=O)NC(C)c3ccccc3)n2)cc1 (centres undefined) 13.5%, Cc1c(C(=O)OC2CCCCCC2)[nH]c2c1C(=O)CC(c1ccccc1Cl)C2 (centres undefined) -19.6%, CCOC(=O)c1c(S(=O)(=O)N2CCC(C(=O)Nc3cccc(C#N)c3)CC2)c(C)n(C)c1C 7.75%, CCN(CC)S(=O)(=O)c1ccc(C(=O)NC2CC(=O)N(c3ccc4c(c3)OCCO4)C2)cc1 (centres undefined) 6.36%, Oc1ccc(C2CNCCc3c2cc(O)c(O)c3Cl)cc1 (centres undefined) -12.3%, Cc1ccccc1NC(=O)Cn1c(=O)n(CCCCC(=O)NCc2ccccc2Cl)c(=O)c2ccccc21 6.77%, O=C(CSc1nc2c(c(=O)[nH]1)CN(Cc1ccc(F)cc1)CC2)Nc1cccc(C(F)(F)F)c1 -2.25%, Cc1cc(C)nc(-n2nc(C)c3c2NC(=O)CC3c2ccccc2OC(C)C)n1 (centres undefined) -3.01%, CCC1CCCCN1C(=O)Cn1c(=O)n(-c2ccccc2C(F)(F)F)c(=O)c2c(C)c(C(=O)N(C)C)sc21 (centres undefined) -3.95%, CCCCC(=O)NC1(C(F)(F)F)C(=O)Nc2c1c(=O)[nH]c(=O)n2-c1ccc(F)cc1 (centres undefined) 0.069%, Cc1ccc(C)c(NC(=O)C2CCCN(S(=O)(=O)c3cccc4nsnc34)C2)c1 (centres undefined) 56.3%, Cc1ccc(NC(=O)Cn2c(=O)n(Cc3nc(-c4ccccc4)no3)c(=O)c3cc4c(cc32)OCO4)cc1C -9.12%, COc1ccccc1N1CCN(C(c2ccccc2)c2nnc(-c3ccccc3Cl)o2)CC1 (centres undefined) -4.46%, COc1ccc(C2CC(=O)c3c([nH]c(C(=O)OC4CCCC4)c3C)C2)cc1OC (centres undefined) 2.4%, CCOc1ccc(NC(=O)C(CC)n2nc(-c3ccc(C)c(C)c3)ccc2=O)cc1 (centres undefined) 9.43%, CCOc1ccc(OCC)c(NC(=O)CN(c2ccc(C)cc2)S(=O)(=O)c2c(C)n[nH]c2C)c1 -3.95%, CCOc1ccc(CCNC(=O)c2ccc(Cn3c(=O)c4cccn4c4cccnc43)cc2)cc1 -3.64%, COc1ccc(-c2csc3ncnc(Nc4ccc(OC)c(OC)c4)c23)cc1 -18.9%, COc1cccc(C(=O)c2sc(Nc3ccc(C)cc3C)c(S(=O)(=O)c3ccccc3)c2N)c1 3.05%

outcome, inactive:
COC(=O)c1ccccc1NC(=O)Nc1cccc(OCc2cc(=O)n3cccc(C)c3n2)c1, COc1ccc(-c2noc(-c3ccc(N4CCCCC4)c([N+](=O)[O-])c3)n2)cc1, Cc1ccccc1-c1nc(CS(=O)CC(=O)NCCc2ccc(Cl)cc2)c(C)o1 (centres undefined), CCn1cc(C(=O)NCCCN(CC(C)C)CC(C)C)c(=O)c2cc(S(=O)(=O)N3CCc4ccccc4C3)ccc21, CCCN(CCC)c1nn2c(=O)c(C(=O)NCc3cccc(OC)c3)cnc2s1, O=S1(=O)c2ccccc2N(Cc2ccccc2Cl)c2ccccc21, COc1cccc(NC(=O)C(=O)NCCc2sc(-c3cccc(C)c3)nc2C)c1, COc1ccc(Nc2nc(N)nc(CSc3nc4ccccc4s3)n2)cc1, COc1ccc(-c2cc(NCc3ccc(C)cc3)n3cnnc3n2)cc1, CCN1C(=O)c2ccccc2Sc2ccc(NC(=O)Nc3ccc(Br)c(C)c3)cc21, O=C(CN1C(=O)COc2ccc(S(=O)(=O)Nc3ccccc3)cc21)NCc1ccccc1Cl, COc1ccc(NC(=O)Cn2c(=O)n(CCc3ccccc3)c(=O)c3sc4ccccc4c32)cc1, CCOC(=O)c1ccc(N2C(=O)c3[nH]nc(-c4ccccc4)c3C2c2cccs2)cc1 (centres undefined), COc1ccc(CCNc2nc(SCc3ccccc3Cl)nc3ccccc23)cc1OC, COc1cc(Cl)c(NS(=O)(=O)c2ccc3[nH]c(=O)ccc3c2)c(OC)c1
